Results on 111 compounds are retold here after PubChem BioAssay AID488969 (Vanderbilt High Throughput Screening Facility, 2010).

In all, about 110,000 compounds were measured (“z-score”: median about -0.1, highest 2% from about 2 on). This is one part of the list. The source made the active and inactive calls.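 The calls were made as follows: active = z-score in the third read window above 3 or below -3; inactive = the rest.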

The test concerns the target Metabotropic glutamate receptor 8 (Rattus norvegicus) (UniProt P70579). Description: rat mGluR8 modulators via GIRK flux, primary screen, cell-based, thallium flux, HTS (AID 488969). The note with it: HEK293 rat mGluR8, GIRK (G protein-gated inwardly rectifying potassium channel) thallium flux, FluoZin2; at 10 µM; stronger effect = higher value; submaximal glutamate (EC20) added with thallium.
Sequence of UniProt P70579 (P70579 whole entry, looked up): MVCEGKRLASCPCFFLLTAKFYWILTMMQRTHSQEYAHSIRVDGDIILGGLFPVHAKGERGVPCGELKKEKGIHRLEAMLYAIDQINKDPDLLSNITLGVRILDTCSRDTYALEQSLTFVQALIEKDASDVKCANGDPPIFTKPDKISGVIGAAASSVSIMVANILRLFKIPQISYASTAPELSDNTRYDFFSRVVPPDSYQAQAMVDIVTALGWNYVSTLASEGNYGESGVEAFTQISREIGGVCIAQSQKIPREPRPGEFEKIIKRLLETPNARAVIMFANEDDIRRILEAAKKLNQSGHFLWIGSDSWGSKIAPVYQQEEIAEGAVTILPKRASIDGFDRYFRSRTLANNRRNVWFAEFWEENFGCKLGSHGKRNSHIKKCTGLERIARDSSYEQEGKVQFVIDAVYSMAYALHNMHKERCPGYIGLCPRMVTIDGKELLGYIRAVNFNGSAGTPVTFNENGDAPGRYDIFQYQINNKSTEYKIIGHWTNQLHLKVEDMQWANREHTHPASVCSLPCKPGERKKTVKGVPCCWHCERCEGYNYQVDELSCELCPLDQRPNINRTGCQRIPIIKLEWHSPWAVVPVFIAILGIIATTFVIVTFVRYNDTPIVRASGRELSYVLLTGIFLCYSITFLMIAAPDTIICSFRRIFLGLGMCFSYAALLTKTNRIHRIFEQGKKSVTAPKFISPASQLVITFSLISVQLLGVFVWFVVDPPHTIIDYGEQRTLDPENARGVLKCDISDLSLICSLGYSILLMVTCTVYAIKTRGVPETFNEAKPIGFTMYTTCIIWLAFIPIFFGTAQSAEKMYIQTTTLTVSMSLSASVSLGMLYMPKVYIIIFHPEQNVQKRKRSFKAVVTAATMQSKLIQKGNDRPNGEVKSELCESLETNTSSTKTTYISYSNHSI
`O=C1c2oc3ccc(F)cc3c(=O)c2C(c2ccc(F)cc2)N1CCCN1CCOCC1` (stereo unspecified) gave a z-score of 0.289.

For `CCCc1nnc(SCC(=O)N2CCCCC2C)n1CC1CCCO1` (stereo unspecified), the z-score worked out at 0.0274.

In the case of `CCCNC(=O)C1CCN(S(=O)(=O)c2ccc3nc4c(c(C(=O)O)c3c2)CCCCC4)CC1`, the z-score was determined as 0.104. Regarding `CCN1C(=O)NC2C1N(S(C)(=O)=O)CCN2S(C)(=O)=O` (stereo unspecified), the z-score was 0.683. The value for `O=C(O)C1Sc2[nH]c(=O)sc2C2c3cc(Cl)ccc3OC(=O)C12` (stereo unspecified) was -0.16; that for `O=C(c1cccc(Br)c1)N1CCN(C(=O)N2CCCCC2)CC1` was -0.345. For `CS(=O)(=O)N(CC(=O)NCc1cccnc1)Cc1ccc(Cl)cc1`, the z-score worked out at 0.199. In the case of `CC(C)NC(=O)CN(CCc1ccccc1)S(C)(=O)=O`, the z-score was -0.11. `O=C(c1ccccc1)c1ccc2nc(N3CCN(C(=O)c4ccco4)CC3)c3nncn3c2c1` showed a z-score of -1.87. As for `Cc1ccc(NC(=O)Nc2cccs2)c(Cl)c1`, the z-score turned out to be 0.676. Consider `Cc1ccc(C2/C(=C(\O)c3ccc4c(c3)OCCO4)C(=O)C(=O)N2CCCN(C)C)o1` (stereo unspecified), for which the z-score was -0.258. The value for `Cc1ccc(S(=O)(=O)N2c3ccccc3-c3c(ssc3=S)C2(C)C)cc1` was 0.293. The value for `Cc1ccc(-c2n[nH]c(=O)c3ccccc23)cc1N` was 0.567. Compound `Cc1cc(Cl)c(S(=O)(=O)N/N=C/c2ccc3c(c2)OCO3)c(Cl)c1` yielded a z-score of -0.527. `O=C(Cn1cnc2ccccc21)N/N=C/c1ccco1` gave a z-score of 0.0037. The value for `COc1cccc(-c2cc(C(=O)Nc3ccc4c(c3)OCCO4)c3ccccc3n2)c1` was -0.22. The value for `O=C(c1ccco1)N1c2ccccc2Sc2ccccc21` was -1.03; that for `COc1ccc(OC)c(/C=N/NC(=O)CSc2nnc(C)n2-c2ccccc2)c1` was -0.183. Take `O=c1cc(N2CCCCC2)nc2n1CCCS2`: the z-score is -0.21. The value for `CC1CCc2nn(CC(=O)NC3CCCC3)cc2C1` (stereo unspecified) was -0.653; that for `CC(C)(C)NC(=O)/C(=C\c1ccc(Br)cc1)NC(=O)c1cccs1` was 0.12; that for `N#Cc1nc(-c2ccc(Cl)cc2)oc1NCc1cccc2c1OCO2` was -0.253. The value for `CC(O)CNc1cc(N)c([N+](=O)[O-])cc1[N+](=O)[O-]` (stereo unspecified) was -0.186; that for `O=C(Nc1ccc(Cn2cccn2)cc1)c1ccc(COc2ccc(Br)cc2)cc1` was 0.105. In the case of `Cc1ccc(N2CCN(S(=O)(=O)c3ccc(F)cc3)CC2)c(C)c1` it was 0.259.

`CCONC(=O)Nc1ccccc1` showed a z-score of 0.0707. Compound `O=S(=O)(c1ccc2c(c1)nc1n2CCC1)N1CCOCC1` displayed a z-score of -0.0595. In the case of `CCN1CCC(=NNC(=O)c2ccc(C)c([N+](=O)[O-])c2)CC1` it was -0.488; in that of `Cc1ccc(-n2c3c(cc(C(=O)NC4CCSC4=O)c2=O)C(=O)CCC3)cc1` (stereo unspecified), 0.433.

On to `CCC1=NN(C(=O)c2cccnc2)C(O)(C(F)(F)F)C1` (stereo unspecified), for which the z-score was -0.17.

With `CCOC(=O)c1cn2nc(-c3ccc(OC)cc3)cc2nc1C1CCN(C(=O)OC(C)(C)C)CC1`, the z-score was -0.054. For the compound `Cc1ccc2nc(-c3cccnc3SCC(=O)N3c4ccccc4CC3C)[nH]c2c1` (stereo unspecified), the z-score is -0.0959. The value for `O/N=C/c1cc(Cl)ccc1OCc1ccccc1Cl` was -0.352; that for `COC(=O)c1cc(Br)ccc1NC(=O)Nc1ccc(C)cc1` was 0.037. Turning to `C=CCSC1=C(C#N)C(c2ccccc2C)CC(=O)N1` (stereo unspecified), the z-score was -1.48. The value for `Cc1ccccc1OCC1Cc2c(nc(N)c(C#N)c2N)O1` (stereo unspecified) was -0.0716. In the case of `S=c1[nH]nc(CCc2ccc(Cl)cc2)o1` it was 0.169; in that of `CCOC(=O)c1ccc(NC2c3ccccc3C(=O)N2c2ccc(C)cn2)cc1` (stereo unspecified), -0.173. In the case of `O=S1(=O)C=C(SCc2ccc(Cl)c(Cl)c2)Nc2ccccc21`, the z-score was -0.446.

In turn, `COc1ccc2nc(NC(=O)CSC3=NCCS3)sc2c1` registered a z-score of -0.0786.

`CC(C)Oc1ccc(/C(O)=C2/C(=O)C(=O)N(CCCn3ccnc3)C2c2cccnc2)cc1` (stereo unspecified) displayed a z-score of -0.0218. In the case of `CCCC(=O)Nc1ccccc1NC(C)=O` it was 0.269; in that of `COC(=O)CNC(=O)COC(=O)c1cc(Cl)cc(Cl)c1N`, -0.185. On to `CCC(=O)N/C(=N\OCc1ccc(F)cc1)c1nonc1NC(=O)CC`, for which the z-score was -0.064.

Consider `COc1ccc(CCNC(=O)c2cnc3n(c2=O)CCS3)cc1OC`, for which the z-score is -0.349. In the case of `Cc1cc(C)n(-c2nc(C)nc3sc4c(c23)CCC(C)C4)n1` (stereo unspecified) it was -1.29; in that of `CNC(=S)SCCOc1ccccc1C`, 0.297; in that of `CC(C)(C)C(=O)/C=c1\[nH]c(=O)/c(=C\c2ccc(F)cc2)s1`, active: 5.06. The compound `CCOc1c2ccc(C(=O)NCCc3cccs3)cc2nn1CC` registered a z-score of -0.0309. In turn, `O=C(Nc1cccc(-c2nnc(-c3ccccc3)o2)c1)c1ccc(Br)o1` returned a z-score of -0.452. In the case of `Cc1c(NC(=S)NC(=O)C(C)(C)C)c(=O)n(-c2ccccc2)n1C` it was -0.0749; in that of `CCC(C)NCC(=O)Nc1sc2c(c1C(N)=O)CCC2` (stereo unspecified), -0.174; in that of `CCCCN(C(=O)NC(=O)Nc1cccc(C)c1C)S(C)(=O)=O`, -0.937.

Take `O=C(Nc1ccccc1C(=O)N1CCCC1)c1ccccc1`: the z-score is -0.138. As to `COC(=O)C1=C(C)N(c2ccc(Br)cc2)C(=O)/C1=C\c1ccco1`, the z-score was -1.49. In turn, `Cc1ccc(NC(=O)CCC(=O)OCCCC(F)(F)C(F)(F)F)cc1` returned a z-score of 1.25. In the case of `CCOC(=O)C1CCCN(c2cc(=O)n(Cc3ccc(F)cc3)c(=O)[nH]2)C1` (stereo unspecified) it was -0.303; in that of `COc1ccccc1N(C)S(=O)(=O)c1ccc(C(=O)NC(C)(C)C)cc1`, -0.0357. In the case of `CCn1cc(C(C)(C)C)c(C#N)c1NC(C)=O` it was -0.224; in that of `CC(=O)C1=C(C)NC(C)=C(C(C)=O)C1c1ccc(-c2ccccc2Cl)o1`, 0.666; in that of `COC(=O)c1ccccc1NC(=O)CSCC(=O)Nc1ccc(F)cc1`, -0.231. Compound `Cc1ccccc1CN1CCc2c(OCC(=O)N3CCCc4ccccc43)cccc2C1=O` had a z-score of -0.196. In the case of `COc1ccc([N+](=O)[O-])cc1NC(=O)c1ccc(N(Cc2ccccc2Cl)S(C)(=O)=O)cc1` it was -0.345. The value for `CCOc1cc(C(=O)N2CCN(c3ccc(C(C)=O)cc3)CC2)cc(OCC)c1OCC` was -0.202; that for `O=C(NCCCn1ccnc1)Nc1ccc(Cl)cc1Cl` was -0.326. The value for `CC(C)(C)NCc1cc2ccccc2[nH]c1=O` was -0.0486; that for `Cn1sc(NC(=O)c2ccccc2)nc1=O` was 0.0165. For the compound `Cc1n[nH]c(=S)c2nn(-c3cccc(Cl)c3)c(C)c12`, the z-score is -0.0685. Regarding `Cc1cccc(NC(=O)Cn2nc(C(F)(F)F)cc2C2CC2)c1`, the z-score worked out at 0.623. `CCn1c(O)c(N=NC(=O)CNC(=O)c2ccco2)c2ccccc21`: the z-score is -0.152.

In the case of `CN(C(=O)CSc1nnc(-c2n[nH]c3ccccc23)o1)c1ccccc1`, the z-score is -0.571.

As for `COc1ccc(/C=N/n2c(SC)nnc(C(C)(C)C)c2=O)cc1OC`, the z-score is -0.221. The value for `Cn1c(=O)n(C)c2cc(C(N)=O)ccc21` was 0.035; that for `CCOc1cccc(NC(=O)CC#N)c1` was -0.393; that for `CCN(CC)C(=O)c1sc(NC(=O)c2cc(-c3ccc(C)s3)nc3ccccc23)c(C(=O)OC)c1C` was -0.353.

With `Cc1ccc(C2CC(c3ccccc3)=NN2C(=S)Nc2ccccc2)o1` (stereo unspecified), the z-score is -0.213. Consider `CCN(CC)c1ccc2cc(-c3nc4ccccc4[nH]3)c(=O)oc2c1`, for which the z-score was -2.63. In the case of `O=C(CSCc1ccccc1)Nc1ccc(Cl)cn1` it was -0.435; in that of `Cc1ccccc1CSc1nnc(-c2ccccn2)n1N`, 0.509; in that of `Cc1ccccc1-n1nc(C)c2cc(C(=O)NC3CC3)sc21`, -1.81. In turn, `CCc1cc(=O)oc2cc(OCC(N)=O)c(Cl)cc12` had a z-score of 0.0423.

The compound `CCn1c(SCC(=O)Nc2oc(-c3ccccc3)c(-c3ccccc3)c2C#N)nnc1-c1ccncc1` displayed a z-score of -0.814. The value for `CCOC(=O)N1CCC(N2CC34C=CC(O3)C(C(=O)Nc3ccc(C(C)C)cc3)C4C2=O)CC1` (stereo unspecified) was -0.264; that for `N#Cc1ccc(OCCN2C(=O)NC3(CCSC3)C2=O)cc1` (stereo unspecified) was -0.566; that for `NNC(=O)CCc1c[nH]c2ccccc12` was -0.11.

Regarding `COc1ccc(N2CCN(S(=O)(=O)c3cccc(C(F)(F)F)c3)CC2)cc1`, the z-score is -0.0298. In the case of `O=C(/C=C/c1ccccc1)NCCSc1ccc(Cl)cc1` it was -0.183; in that of `Fc1ccc(-c2cc(C(F)(F)F)nc(N3CCCCC3)n2)cc1`, -0.211; in that of `COc1ccc(CC(NC(C)=O)C(=O)NC2CCN(C(=O)c3cnccn3)CC2)cc1` (stereo unspecified), -0.00175. The value for `Cc1cc(-c2nnc(SCC(=O)Nc3ccccc3C(F)(F)F)o2)c(C)n1-c1ccccc1` was -0.307.

Turning to `CC(=O)c1ccc2c(c1)Cc1cc(C(C)=O)ccc1-2`, the z-score was -0.184.

In the case of `COC(=O)c1sc(N)c(C(=O)OC)c1CSc1nc2sc3c(c2c(=O)n1C)CCC3`, the z-score is -0.0976. In turn, `CCn1c(CCNC(=O)c2ccc(C)cc2)nnc1SCc1ccc(Cl)c(Cl)c1` showed a z-score of -0.659. In turn, `CC(C)n1cc(/C=C2/NC(=O)N(c3cccc(Cl)c3)C2=O)c2ccccc21` had a z-score of -0.205. The compound `COc1ccc(C2Nc3ccccc3C(=O)N2Cc2ccco2)cc1COc1ccccc1F` (stereo unspecified) gave a z-score of -0.629. Compound `Cc1occc1C(=O)N1CCN(Cc2ccccc2)CC1` came in with a z-score of -0.362. The compound `Cc1ccc(N2C(=O)[C@@H]3[C@H](C2=O)[C@H]2C=CC=NN2[C@@H]3C(=O)Nc2ccc(Cl)cc2)cc1` displayed a z-score of 0.257. `CCc1ccccc1N(CC(=O)O)S(C)(=O)=O`: the z-score was found to be 0.424. The value for `Cc1ccoc1C(=O)NCCNc1ccc(Cl)cc1[N+](=O)[O-]` was -0.511; that for `COC(=O)c1ccc(N2CCN(CC(=O)c3ccc(-c4ccccc4)cc3)CC2)c([N+](=O)[O-])c1` was -0.117; that for `CCn1c(SCC(=O)Nc2ccc3c(c2)OCCO3)nc2c(c1=O)SC(C)C2` (stereo unspecified) was -1.51. As to `O=C(NCc1cccs1)c1cccc(Nc2nc3ccc(Br)cc3[nH]2)c1`, the z-score is -0.408. `CC(=O)c1ccc(NC(=O)Nc2ccc([N+](=O)[O-])cc2)cc1`: the z-score was -0.178.

Compound `CCOC(=O)c1nn(-c2ccc(C)cc2)cc1C(=O)c1ccccc1` had a z-score of -0.509. In the case of `O=C(c1cccs1)N1CCN(CCc2ccccc2)CC1` it was -0.113; in that of `COc1ccccc1NC(=O)c1ccc(C)s1`, -0.701. In the case of `O=S(=O)(NC1CCCCCCC1)c1cccs1` it was -0.409; in that of `CSc1nncn1/N=C/c1ccc2c(c1)OCO2`, 0.0246; in that of `CCc1ccc(N(C(=O)c2snc(C(N)=O)c2N)C(C(=O)NCCC(C)C)c2c[nH]c3ccccc23)cc1` (stereo unspecified), -0.259. In the case of `CCOC(=O)C1=C(C)N(CCO)C(=O)NC1c1cccc(O)c1` (stereo unspecified) it was -0.0476; in that of `COc1ccc(-c2nnc(SCC(=O)N3CCCc4ccccc43)o2)cc1OC`, 0.39.
